# Inconclusive results and toxic doses are left out. The source holds more than one record for some entries. This list holds those alone. An entry can have further records. The records of an entry repeat one measurement in other runs, samples, wells, individuals or studies.
# System: L1210 leukemia ip in BDF1 mice, survival T/C
# Assay: NCI In Vivo Anticancer Drug Screen. Data for tumor model L1210 Leukemia (intraperitoneal) in B6D2F1 (BDF1) mice
# Settings: endpoint: mean survival time, higher = longer survival
smiles,measurement,setting,value
O=C(NP(=O)(N1CC1)N1CC1)c1cc(I)ccc1I,T/C,"dose: 2.0 mg/kg/injection, schedule: Q01DX009 (ip), vehicle: saline",94 % of control and 151 % of control
same,T/C,"dose: 4.0 mg/kg/injection, schedule: Q01DX009 (ip), vehicle: saline",104 % of control and 165 % of control
same,T/C,"dose: 8.0 mg/kg/injection, schedule: Q01DX009 (ip), vehicle: saline",118 % of control and 162 % of control
same,T/C,"dose: 16.0 mg/kg/injection, schedule: Q01DX009 (ip), vehicle: saline",107 % of control and 176 % of control
CC1c2ccccc2OC(=O)C1C(=O)O (centres undefined),T/C,"dose: 200.0 mg/kg/injection, schedule: Q01DX001 (ip), vehicle: carboxymethylcellulose (CMC)",95 % of control and 152 % of control
O=C(O)c1cc([N+](=O)[O-])cc([N+](=O)[O-])c1 (tested in a mixture with another compound),T/C,"dose: 12.5 mg/kg/injection, schedule: Q04DX002 (ip), vehicle: saline with Tween-80",97 % of control and 169 % of control
COc1cc2c[n+](C)c3c4cc(OC)c(OC)cc4ccc3c2cc1OC,T/C,"dose: 100.0 mg/kg/injection, schedule: Q01DX009 (ip), vehicle: water",88 % of control and 164 % of control
same,T/C,"dose: 200.0 mg/kg/injection, schedule: Q01DX009 (ip), vehicle: saline",121 % of control and 151 % of control
COc1cc([N+](=O)[O-])c(Cl)cc1NS(=O)(=O)c1ccccc1,T/C,"dose: 200.0 mg/kg/injection, schedule: Q04DX003 (ip), vehicle: saline with Tween-80","100 % of control, 101 % of control, 171 % of control"

# Reference: PubChem BioAssay AID248 (DTP/NCI, 2004)
